Measured values taken from patent US10787442B2, “Modulators of indoleamine 2,3-dioxygenase” (GLAXOSMITHKLINE INTELLECTUAL PROPERTY DEVELOPMENT LIMITED, priority 2016, dated 2020).

Biological target: indoleamine 2, 3-dioxygenase (IDO1) (Homo sapiens, UniProt P14902)
Assay: IDO1 PBMC RapidFire MS Assay (kynurenine by mass spectrometry)
Type: cell-based
Settings: human PBMC stimulated with IFN-γ and LPS, 2 days; recorded as pIC50; read-out: IDO1 PBMC PXC50 (converted)
Method: IDO1 PBMC RapidFire MS Assay
Compounds of the present invention were tested via high-throughput cellular assays utilizing detection of kynurenine via mass spectrometry and cytotoxicity as end-points. […] Compounds with IDO1 inhibitory properties decreased the amount of kynurenine produced by the cells via the tryptophan catabolic pathway. Cellular toxicity due to the effect of compound treatment was measured using CellTiter-Glo® reagent (CTG) (Promega Corporation, Madison, Wis.), which is based on luminescent detection of ATP, an indicator of metabolically active cells.
In preparation for the assays, test compounds were serially diluted 3-fold in DMSO from a typical top concentration of 1 mM or 5 mM and plated at 0.5 μL in 384-well, polystyrene, clear bottom, tissue culture treated plates with lids (Greiner Bio-One, Kremsmünster, Austria) to generate 11-point dose response curves. Low control wells (0% kynurenine or 100% cytotoxicity) contained either 0.5 μL of DMSO in the presence of unstimulated (−IFN-γ/−LPS) PBMCs for the mass spectrometry assay or 0.5 μL of DMSO in the absence of cells for the cytotoxicity assay, and high control wells (100% kynurenine or 0% cytotoxicity) contained 0.5 μL of DMSO in the presence of stimulated (+IFN-γ/+LPS) PBMCs for both the mass spectrometry and cytotoxicity assays.
Frozen stocks of PBMCs were washed and recovered in RPMI 1640 medium (Thermo Fisher Scientific, Inc., Waltham, Mass.) supplemented with 10% v/v heat-inactivated fetal bovine serum (FBS) (Thermo Fisher Scientific, Inc., Waltham, Mass.), and 1× penicillin-streptomycin antibiotic solution (Thermo Fisher Scientific, Inc., Waltham, Mass.). The cells were diluted to 1,000,000 cells/mL in the supplemented RPMI 1640 medium. 50 μL of either the cell suspension, for the mass spectrometry assay, or medium alone, for the cytotoxicity assay, were added to the low control wells, on the previously prepared 384-well compound plates, resulting in 50,000 cells/well or 0 cells/well respectively. IFN-γ and LPS were added to the remaining cell suspension at final concentrations of 100 ng/ml and 50 ng/ml respectively, and 50 μL of the stimulated cells were added to all remaining wells on the 384-well compound plates. The plates, with lids, were then placed in a 37° C., 5% CO2 humidified incubator for 2 days.
Following incubation, the 384-well plates were removed from the incubator and allowed to equilibrate to room temperature for 30 minutes. For the cytotoxicity assay, CellTiter-Glo® was prepared according to the manufacturer's instructions, and 40 μL were added to each plate well. After a twenty minute incubation at room temperature, luminescence was read on an EnVision® Multilabel Reader (PerkinElmer Inc., Waltham, Mass.). For the mass spectrometry assay, 10 μL of supernatant from each well of the compound-treated plates were added to 40 μL of acetonitrile, containing 10 μM of an internal standard for normalization, in 384-well, polypropylene, V-bottom plates (Greiner Bio-One, Kremsmünster, Austria) to extract the organic analytes. Following centrifugation at 2000 rpm for 10 minutes, 10 μL from each well of the acetonitrile extraction plates were added to 90 μL of sterile, distilled H2O in 384-well, polypropylene, V-bottom plates for analysis of kynurenine and the internal standard on the RapidFire 300 (Agilent Technologies, Santa Clara, Calif.) and 4000 QTRAP MS (SCIEX, Framingham, Mass.). MS data were integrated using Agilent Technologies' RapidFire Integrator software, and data were normalized for analysis as a ratio of kynurenine to the internal standard.

Sequence of UniProt P14902 (P14902 whole entry): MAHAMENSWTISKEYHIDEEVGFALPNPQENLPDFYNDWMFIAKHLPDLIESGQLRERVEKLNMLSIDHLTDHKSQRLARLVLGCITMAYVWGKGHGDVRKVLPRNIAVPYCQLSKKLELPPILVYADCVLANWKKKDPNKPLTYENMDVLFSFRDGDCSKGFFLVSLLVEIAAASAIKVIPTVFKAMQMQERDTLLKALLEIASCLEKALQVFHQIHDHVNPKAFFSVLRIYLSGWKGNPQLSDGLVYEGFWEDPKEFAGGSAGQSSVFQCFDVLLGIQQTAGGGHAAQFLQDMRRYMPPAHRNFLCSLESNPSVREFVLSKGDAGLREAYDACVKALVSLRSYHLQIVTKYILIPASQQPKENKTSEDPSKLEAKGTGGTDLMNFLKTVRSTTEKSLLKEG

IC50 [nM] | Compound
3.98 | CC(C)CN(CC(C)C)c1ncc(C(C)CC(=O)O)cc1Nc1nc(C(F)(F)F)ns1 (centres unmarked) [Example 1, 3-(6-(diisobutylamino)-5-((3-(trifluoromethyl)-1,2,4-thiadiazol-5-yl)amino)pyridin-3-yl)butanoic acid]
3.98 | CC(C)CN(c1ncc(C(C)CC(=O)O)cc1Nc1ccc(C(F)(F)F)cn1)C1CCOCC1 (centres unmarked) [Example 2, 3-(6-(isobutyl(tetrahydro-2H-pyran-4-yl)amino)-5-((5-(trifluoromethyl)pyridin-2-yl)amino)pyridin-3-yl)butanoic acid]
1.26 | CC(C)CN(c1ncc([C@H](C)CC(=O)O)cc1Nc1nc(C(F)(F)F)ns1)C1CCOCC1 [Example 3, (R)-3-(6-(isobutyl(tetrahydro-2H-pyran-4-yl)amino)-5-((3-(trifluoromethyl)-1,2,4-thiadiazol-5-yl)amino)pyridin-3-yl)butanoic acid]
3.98 | CC(C)CN(c1ncc([C@H](C)CC(=O)O)cc1Nc1ccc(Cl)nc1)C1CCOCC1 [Example 4, (R)-3-(5-((6-chloropyridin-3-yl)amino)-6-(isobutyl(tetrahydro-2H-pyran-4-yl)amino)pyridin-3-yl)butanoic acid]
7.94 | CC(C)CN(c1ncc([C@H](C)CC(=O)O)cc1Nc1cnc(Cl)nc1)C1CCOCC1 [Example 5, (R)-3-(5-((2-chloropyrimidin-5-yl)amino)-6-(isobutyl(tetrahydro-2H-pyran-4-yl)amino)pyridin-3-yl)butanoic acid]
6.31 | CC(C)CN(c1ncc([C@H](C)CC(=O)O)cc1Nc1ccc(Cl)c(F)n1)C1CCOCC1 [Example 7, (R)-3-(5-((5-chloro-6-fluoropyridin-2-yl)amino)-6-(isobutyl(tetrahydro-2H-pyran-4-yl)amino)pyridin-3-yl)butanoic acid]
10 | CC(C)CN(c1ncc([C@H](C)CC(=O)O)cc1Nc1nc(C(C)C)ns1)C1CCOCC1 [Example 8]
20 | C[C@H](CC(=O)O)c1cnc(N(CC2CC2)C2CCOCC2)c(Nc2ccc(Cl)cn2)c1 [Example 9, (R)-3-(5-((5-chloropyridin-2-yl)amino)-6-((cyclopropylmethyl)(tetrahydro-2H-pyran-4-yl)amino)pyridin-3-yl)butanoic acid]
10 | CC(C)CN(c1ncc([C@H](C)CC(=O)O)cc1Nc1n[nH]c(C(F)(F)F)n1)C1CCCCC1 [Example 10, (R)-3-(6-(cyclohexyl(isobutyl)amino)-5-((5-(trifluoromethyl)-1H-1,2,4-triazol-3-yl)amino)pyridin-3-yl)butanoic acid]
1 | CC(C)CN(c1ncc([C@H](C)CC(=O)O)cc1Nc1nc(C(F)(F)F)ns1)C1CCCCC1 [Example 11, (R)-3-(6-(cyclohexyl(isobutyl)amino)-5-((3-(trifluoromethyl)-1,2,4-thiadiazol-5-yl)amino)pyridin-3-yl)butanoic acid]
2.51 | CC(C)CN(c1ncc([C@H](C)CC(=O)O)cc1Nc1nc(Cl)ns1)C1CCCCC1 [Example 12, (R)-3-(5-((3-chloro-1,2,4-thiadiazol-5-yl)amino)-6-(cyclohexyl(isobutyl)amino)pyridin-3-yl)butanoic acid]
1.58 | CC(C)CN(c1ncc([C@H](C)CC(=O)O)cc1Nc1ccc(Cl)cn1)C1CCCCC1 [Example 13, (R)-3-(5-((5-chloropyridin-2-yl)amino)-6-(cyclohexyl(isobutyl)amino)pyridin-3-yl)butanoic acid]
3.16 | CC(C)CN(c1ncc([C@H](C)CC(=O)O)cc1Nc1nc(C(C)C)ns1)C1CCCCC1 [Example 14, (R)-3-(6-(cyclohexyl(isobutyl)amino)-5-((3-isopropyl-1,2,4-thiadiazol-5-yl)amino)pyridin-3-yl)butanoic acid]
5.01 | COCc1nsc(Nc2cc([C@H](C)CC(=O)O)cnc2N(CC(C)C)C2CCCCC2)n1 [Example 15, (R)-3-(6-(cyclohexyl(isobutyl)amino)-5-((3-(methoxymethyl)-1,2,4-thiadiazol-5-yl)amino)pyridin-3-yl)butanoic acid]
7.94 | Cc1nsc(Nc2cc([C@H](C)CC(=O)O)cnc2N(CC(C)C)C2CCCCC2)n1 [Example 16, (R)-3-(6-(cyclohexyl(isobutyl)amino)-5-((3-methyl-1,2,4-thiadiazol-5-yl)amino)pyridin-3-yl)butanoic acid]
1.58 | CC(C)CN(c1ncc([C@H](C)CC(=O)O)cc1Nc1ccc(Cl)nc1)C1CCC(F)(F)CC1 [Example 17, (R)-3-(5-((6-chloropyridin-3-yl)amino)-6-((4,4-difluorocyclohexyl)(isobutyl)amino)pyridin-3-yl)butanoic acid]
3.98 | CC(C)CN(c1ncc([C@H](C)CC(=O)O)cc1Nc1ccc(Cl)cn1)C1CCC(F)(F)CC1 [Example 18, (R)-3-(5-((5-chloropyridin-2-yl)amino)-6-((4,4-difluorocyclohexyl) (isobutyl)amino)pyridin-3-yl)butanoic acid]
6.31 | CC(C)CN(c1ncc([C@H](C)CC(=O)O)cc1Nc1ccc(Cl)nc1)C1CC(F)(F)C1 [Example 19, (R)-3-(5-((6-chloropyridin-3-yl)amino)-6-((3,3-difluorocyclobutyl)(isobutyl)amino)pyridin-3-yl) butanoic acid]
7.94 | CC(C)CN(c1ncc([C@H](C)CC(=O)O)cc1Nc1nc(C(F)(F)F)ns1)C1CC(F)(F)C1 [Example 20, (R)-3-(6-((3,3-difluorocyclobutyl)(isobutyl)amino)-5-((3-(trifluoromethyl)-1,2,4-thiadiazol-5-yl)amino)pyridin-3-yl)butanoic acid]
5.01 | CO[C@H]1CC[C@@H](N(CC(C)C)c2ncc([C@H](C)CC(=O)O)cc2Nc2nc(Cl)ns2)CC1 [Example 21, (R)-3-(5-((3-chloro-1,2,4-thiadiazol-5-yl)amino)-6-(isobutyl((1s,4S)-4-methoxycyclohexyl)amino)pyridin-3-yl)butanoic acid]
1.26 | CO[C@H]1CC[C@@H](N(CC(C)C)c2ncc([C@H](C)CC(=O)O)cc2Nc2nc(C(F)(F)F)ns2)CC1 [Example 22, (R)-3-(6-(isobutyl((1s,4S)-4-methoxycyclohexyl)amino)-5-((3-(trifluoromethyl)-1,2,4-thiadiazol-5-yl)amino)pyridin-3-yl) butanoic acid]
3.98 | CO[C@H]1CC[C@@H](N(CC(C)C)c2ncc([C@H](C)CC(=O)O)cc2Nc2ccc(C#N)nc2)CC1 [Example 23, (R)-3-(5-((6-cyanopyridin-3-yl)amino)-6-(isobutyl((1s,4S)-4-methoxycyclohexyl)amino)pyridin-3-yl)butanoic acid]
5.01 | CO[C@H]1CC[C@@H](N(CC(C)C)c2ncc([C@H](C)CC(=O)O)cc2Nc2ccc(Cl)cn2)CC1 [Example 24, (R)-3-(5-((5-chloropyridin-2-yl)amino)-6-(isobutyl((1s,4S)-4-methoxycyclohexyl)amino)pyridin-3-yl)butanoic acid]
7.94 | CO[C@H]1CC[C@@H](N(CC(C)C)c2ncc([C@H](C)CC(=O)O)cc2Nc2ccc(C#N)cn2)CC1 [Example 25, (R)-3-(5-((5-cyanopyridin-2-yl)amino)-6-(isobutyl((1s,4S)-4-methoxycyclohexyl)amino)pyridin-3-yl)butanoic acid]
3.16 | CO[C@H]1CC[C@H](N(CC(C)C)c2ncc([C@H](C)CC(=O)O)cc2Nc2nc(C(F)(F)F)ns2)CC1 [Example 26, (R)-3-(6-(isobutyl((1r,4R)-4-methoxycyclohexyl)amino)-5-((3-(trifluoromethyl)-1,2,4-thiadiazol-5-yl)amino)pyridin-3-yl)butanoic acid]

Compound | IC50 [nM]
CC(C)CN(c1ncc([C@H](C)CC(=O)O)cc1Nc1ccc(Cl)cn1)C1CCOCC1 [Example 6, (R)-3-(5-((5-chloropyridin-2-yl)amino)-6-(isobutyl(tetrahydro-2H-pyran-4-yl)amino)pyridin-3-yl)butanoic acid] | 5.01
